Reference: PubChem BioAssay AID445 (National Center for Advancing Translational Sciences (NCATS), 2006)
Out of some 110,000 compounds screened, about 40 (0.04%) were called active. Inconclusive means that the source gave no clear call. Such entries were picked first, then a sample of the others. The call rests on the fitted dose curve; in most records, active means well fitted curve in the direction sought with a large enough effect in the signal ratio (not every such curve was filed as active); inconclusive means small, poorly fitted or top-dose-only effect, or a change in a side signal; inactive means flat fitted curve, though single readings scatter; the % refers to the signal ratio. A potency beside an inconclusive call is a rough fit, not a confirmed value. *1 amine or outer side, *2 acyl side, *3 side chain or, on linkers, in order; H or OH if unused. Where a SMILES comes first, the peptide text is derived from it. Bridges are numbered along the chain shown (N, C = ends). Roman numbers before positions name the chains, in order. [ ]: non-standard residue; d: D form. Actinocin(9to1) = Cc1c2oc3c(C)ccc(C(=O)[*:1])c3nc-2c(C(=O)[*:2])c(N)c1=O; NMeV = CN[C@H](C(=O)O)C(C)C; Sar = CNCC(=O)O

experiment: IkB Signaling; settings: ABC-DLBCL IkBa-CBG/CBR dual luciferase ratio (green luciferase fused to IkBa over red control in OCI-Ly3 lymphoma cells), 4 h; IkBa stabilization activation: at 57.1 µM (top of the series), scaled: untreated 0%, proteasome inhibitor 100% unless noted
Method in brief: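 Curves were fitted separately to fusion (green), unfused (red) and ratio luminescence, then classed by r2, magnitude and activity. Cells: OCI-Ly3, 4 h compound plus doxycycline at 37C; 10 uM MG-132 defined full response.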
Potency means the concentration at half of the fitted maximal effect.

SMILES | IkBa stabilization activation | Potency
Cc1cccc(C(=O)Oc2c(Sc3ccccc3)c(C)nn2C(C)(C)C)c1 | inactive: 1.24% | 
Cc1ccc(NC(=O)c2ccc(=O)n(Cc3ccccc3C)c2)c(C)c1 | inactive: 0.0933% | 
O=C(Cn1nnc2c(cnn2-c2ccc(F)cc2)c1=O)OC1CCCCC1 |  | inconclusive: 20 µM [signal inhibitor, partial curve]
O=C(COc1ccccc1)Nc1ccc2c(c1)nc1n2CCSC1 | inactive: -1.16% | 
Cc1ccc(CN2CCCn3nc(C(=O)NCCc4cccc(C)c4)cc3C2=O)cc1 |  | inconclusive: 20 µM [signal inhibitor]
CCc1ccccc1NC(=O)CSc1nc2c(oc3ccccc32)c(=O)n1C | inactive: -2.12% | 
CC1(C)Cc2nc3oc4c(N(CCO)Cc5ccccc5)ncnc4c3cc2CO1 | inactive: -4.84% | 
CCc1ccccc1NC(=O)Cn1c(SCc2ccc(F)cc2)nc2ccncc21 | inconclusive: 0.0789% [signal inhibitor] | 
O=[N+]([O-])c1cc(-c2nc(-c3ccccc3)no2)ccc1N1CCOCC1 | inconclusive: -0.338% [signal inhibitor] | 
COc1ccc(-c2nc(CCNC(=O)c3ccc(Br)o3)cs2)cc1 | inconclusive: 2.43% [signal inhibitor] | 
CN(Cc1ccco1)c1cc(-c2ccoc2)ncn1 | inactive: 0.538% [at 11.4 µM, scaled: untreated 0%, proteasome inhibitor 100%] | 
COC(=O)c1[nH]c2ccccc2c1NC(=O)CN1CCN(c2cccc(OC)c2)C(C)C1 (centres undefined) | inconclusive: -5.15% [signal inhibitor] | 
COc1ccc(-c2nc(CNS(=O)(=O)c3cccc(F)c3)cs2)cc1 | inconclusive: -0.181% [signal inhibitor] | 
O=c1oc2ccccc2cc1-c1nc2ccccc2o1 |  | inconclusive: 15.8 µM [signal inhibitor, partial curve]
CC1CCN(C(=O)C2COc3ccccc3C2)CC1 (centres undefined) | inactive: -1.07% | 
Cc1cnc(CNc2cc(-c3ccccc3CN(C)C)ncn2)cn1 | inactive: 0.024% [at 11.4 µM, scaled: untreated 0%, proteasome inhibitor 100%] | 
O=C(Nc1ccc2c(c1)OCCO2)c1c(F)c(F)c(F)c(F)c1F | inconclusive: 5.88% [signal inhibitor] | 
CCOC(=O)COc1cccc2c(=O)n(CC(=O)N3CCc4ccccc43)ccc12 | inactive: 2.39% | 
O=C(Cn1cnc2onc(-c3ccc(Cl)cc3)c2c1=O)Nc1ccc(F)cc1 | inconclusive: 1.41% [signal inhibitor] | 
CSc1nnc2c(n1)OC(c1ccc(C(=O)O)cc1)N(C(C)=O)c1ccccc1-2 (centres undefined) | inactive: -0.546% | 
O=C(Oc1ccc(-c2ccccc2)cc1)N1CCOCC1 | inconclusive: 6.2% [signal inhibitor] | 
CC(C)n1c(NCc2c[nH]c3ccccc23)nc2ccccc21 | inconclusive: 1.11% [signal inhibitor] | 
CCOC(=O)c1ccc(N2C(=O)c3n[nH]c(-c4ccco4)c3C2c2cccc(O)c2)cc1 (centres undefined) | inconclusive: -5.38% [signal inhibitor] | 

SMILES | IkBa stabilization activation | Potency
CN(Cc1ccccc1)c1oc(COc2ccccc2F)nc1C#N | inactive: 2.29% | 
COc1ccc(C(C(=O)NC2CCCC2)N(C(=O)c2ccco2)c2ccc3c(c2)OCO3)cc1OC (centres undefined) | inactive: 0.814% | 
Cc1ccccc1CCNC(=O)c1ccc2c(c1)nc1n2CCCCC1 | inconclusive: -0.46% [signal inhibitor] | 
O=C(c1ccncc1)N1CCN(C(=O)c2cccc3ccccc23)CC1 | inactive: -0.822% | 
Cc1ccc(-c2nc3ccccc3o2)cc1NC(=O)Cc1ccc(Cl)cc1 | inconclusive: 1.72% [signal inhibitor] | 
Cc1cccc(-c2nc(CN3CCCC(C(=O)NCCc4ccc(Cl)cc4)C3)c(C)o2)c1 (centres undefined) | inconclusive: -2.45% [signal inhibitor] | 
COC(=O)c1ccccc1NC(=O)CSc1nc(C)c(Cl)c(C)c1C#N | inconclusive: 11.3% [signal inhibitor] | 
O=[N+]([O-])c1cccc(/C=N\Nc2ccc3ccccc3n2)c1O |  | inconclusive: 2 µM [signal inhibitor, partial curve]
CCOC(=O)c1cccc(NC(=O)c2cnc3sc(N4CCOCC4)nn3c2=O)c1 | inconclusive: 3.23% [signal inhibitor] | 
C=CCOC(=O)c1sc(NC(=O)c2ccco2)nc1C | inactive: 5.96% | 
C=C[C@@](C)(O)CC[C@H]1[C@]2(C)CCCC(C)(C)[C@H]2CC[C@]1(C)O | inactive: 0.897% [at 11.4 µM, scaled: untreated 0%, proteasome inhibitor 100%] | 
Cc1ccc(SCC(=O)Nc2ccc3oc(-c4cccc(Cl)c4)nc3c2)cc1 | inactive: -2.52% | 
O=C(Nc1cccc(F)c1)N1CC=C(n2c(=O)[nH]c3ccccc32)CC1 | inconclusive: -0.663% [signal inhibitor] | 
O=C(NCc1ccccc1)C(=O)Nc1c2c(nn1-c1ccccc1)CSC2 | inconclusive: 0.0141% [signal inhibitor] | 
CN1CCCC[C@@H]1CCN1CCCCC1 | inactive: -0.32% [at 11.4 µM, scaled: untreated 0%, proteasome inhibitor 100%] | 
O=S(=O)(c1ccc(S(=O)(=O)N(Cc2ccco2)Cc2ccccc2Cl)cc1)N1CCCC1 | inactive: 1.64% | 
Cc1ccc(C(c2c(O)cc(C)n(Cc3ccco3)c2=O)N2CCC(C)CC2)cc1 (centres undefined) | inconclusive: 6.62% [signal inhibitor] | 
COCCn1c(SCC(=O)N2CCCCC2)nc2ccccc2c1=O | inactive: 1.98% | 
O=C(Nc1cc2c(cc1C(=O)c1ccccc1Br)OCCO2)c1cccc(Cl)c1 | inconclusive: -0.853% [signal inhibitor] | 
COc1ccccc1CNc1ncnc2c1cnn2-c1ccc(C)cc1 | inactive: 3.26% | 
NS(=O)(=O)O | inactive: -1.69% | 
COc1ccc(N2C(=O)CSC23C(=O)N(Cc2cccc(F)c2)c2ccccc23)cc1Cl (centres undefined) | inconclusive: 1.41% [signal inhibitor] | 
CC1(C)Cc2c(C#N)c(N)sc(=S)c2CS1 |  | inconclusive: 39.8 µM [rising, single point]

SMILES | IkBa stabilization activation | Potency
Cc1nc(-n2nc(C)c(CCC(C)C)c2C)sc1C(=O)Nc1ccc(Cl)cc1 | inconclusive: -1.52% [signal inhibitor] | 
CCC(C)NC(=O)c1sc2nc(C)c(C(=O)Nc3ccc(C)cc3C)c(-c3ccc(NC(C)=O)cc3)c2c1N (centres undefined) | inconclusive: 4.4% [signal inhibitor] | 
Cc1ccc2nc(NC(=O)CSc3nccn3Cc3ccc(F)cc3)sc2c1 | inconclusive: 5.02% [signal inhibitor] | 
O=C(O)c1ccc(Cn2c(SCc3ccc(F)cc3)nc3ccncc32)cc1 | inconclusive: 1.69% [signal inhibitor] | 
Cc1cc(NC(=O)CS(=O)(=O)c2cn(Cc3cccc(F)c3)c3ccccc23)no1 | inconclusive: 4.9% [signal inhibitor] | 
COc1ccc(OC)c(C(c2nnnn2Cc2ccccc2)N2CCN(C)CC2)c1 (centres undefined) | inactive: -0.0517% | 
c1ccc(-c2nn3c(Cn4nnc5ccccc54)nnc3s2)cc1 | inactive: 5.43% | 
CCOC(=O)CSc1ccc2nnc(-c3cccs3)n2n1 | inactive: -2.11% | 
COc1ccc(OC)c(S(=O)(=O)NCC(c2cccs2)S(=O)(=O)c2ccc(F)cc2)c1 (centres undefined) | inconclusive: 9.45% [signal inhibitor] | 
Cc1ccccc1NC(=O)c1sc2nc3c(cc2c1N)CN(Cc1ccccc1)CC3 | inconclusive: 0.0294% [signal inhibitor] | 
CCOC(=O)c1ccc(NC(=O)CCc2nc(-c3ccccc3)no2)cc1 | inconclusive: 0.755% [signal inhibitor] | 
COc1cccc(N2CCN(C(=O)CN3CCSc4ccccc43)CC2)c1 | inconclusive: 14.7% [signal inhibitor] | 
O=C(O)CCc1nc(-c2ccc(Cl)cc2)no1 | inconclusive: 8.16% [signal inhibitor] | 
COc1ccc(CC(=O)N2CCc3cc(OC)c(OC)cc3C2COc2ccc3c(C)cc(=O)oc3c2)cc1OC (centres undefined) | inconclusive: -0.664% [signal inhibitor] | 
O=c1ccc2cc(S(=O)(=O)Nc3ccc(OC(F)(F)F)cc3)ccc2[nH]1 | inactive: -1.52% | 
COc1ccc(Oc2ncc3nc(-c4cccs4)c(=O)n(C)c3n2)cc1 | inactive: -1.67% [at 11.4 µM, scaled: untreated 0%, proteasome inhibitor 100%] | 
COc1ccc(CNC(=O)c2ccc(NC(=O)N3CCSc4ncccc43)cc2)cc1 | inactive: 3.57% | 
COc1cc(C(=O)Nc2cc(C)ccn2)cc(OC)c1OC | inactive: 1.41% | 
Cc1c2oc3c(C)ccc(C(=O)N[C@@H]4C(=O)N[C@H](C(C)C)C(=O)N5CCC[C@H]5C(=O)N(C)CC(=O)N(C)[C@@H](C(C)C)C(=O)O[C@@H]4C)c3nc-2c(C(=O)N[C@@H]2C(=O)N[C@H](C(C)C)C(=O)N3CCC[C@H]3C(=O)N(C)CC(=O)N(C)[C@@H](C(C)C)C(=O)O[C@@H]2C)c(N)c1=O (I: T[dV]P[Sar][NMeV] / II: T[dV]P[Sar][NMeV]; ester I:1-I:C, II:1-II:C; linker I:N-II:N via Actinocin(9to1)) | inconclusive: -7.03% [signal inhibitor] | 
Cc1cc2c(cc3c(SCC(=O)Nc4ccc(Cl)cc4F)nncn32)o1 | inconclusive: 2.74% [signal inhibitor] | 
COc1ccc(CCN2C(=O)C3C4C=CC(C4)C3C2=O)cc1OC (centres undefined) |  | inconclusive: 31.6 µM [rising, single point]
Cc1nn(Cc2ccc(Cl)cc2)c(C)c1NC(=O)c1cc(-c2ccc3c(c2)OCO3)on1 | inactive: 13.5% | 
CCc1cccc(C)c1Nc1c(-c2ccsc2)nc2ncccn12 | inconclusive: 1.79% [signal inhibitor] | 
